Results on twelve compounds are retold here after PubChem BioAssay (NCATS).

Records with an inconclusive call do not appear. Calls come from the whole dose curve; as a rule, active = well fitted curve in the direction sought with a large enough effect; inconclusive = small, poorly fitted or top-dose-only effect, or another doubt; inactive = no such curve, though single readings can be large; an effect the other way counts as inactive or inconclusive. Where a structure was tested more than once in an assay, its records may differ in their call. Some entries of the source have several records that differ or are many. Only these are listed. The source may hold further records. The values listed for one entry are repeated measurements across runs, samples, wells, individuals or studies. Marks in square brackets tell the records apart. Letters count within one entry.
Potency is the fitted concentration of half-maximal effect.

One test is described as follows: qHTS of pediatric cancer cell lines to identify multiple opportunities for drug repurposing: Primary screen for SK-N-SH cells (AID 1347098). Note: nearly all actives have a fitted effect of over 65% in size. Particulars: SK-N-SH viability, CellTiter-Glo luminescence, 48 h; series mostly up to 57 µM. An outline of the steps: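 Cells (500-1,000/well) rested 5 h, then received compounds for 48 h; metabolically active cells were measured by CellTiter-Glo luminescence. Final concentrations spanned up to 46 µM (MIPE, 11-point) or 0.59 nM-46 µM (NPC, 8-point) in primary screens, 11-point in follow-ups.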
On the technique in general: qHTS replaces the single test concentration by a dilution series.
On to `CNC1CCCN(c2c(F)cc3c(=O)c(C(=O)O)cn(C4CC4)c3c2OC)C1` (stereo not given), for which the Potency result is “active: 19.2 µM [sample A] and inactive [sample B]”.
For `O=C(O)c1cc(=O)[nH]c(=O)[nH]1`, the Potency result was “active: 38.6 µM [sample A] and inactive [sample B]”.
As for `CCC(=O)O[C@]1(C(=O)SCF)[C@H](C)C[C@H]2[C@@H]3C[C@H](F)C4=CC(=O)C=C[C@]4(C)[C@@]3(F)[C@@H](O)C[C@@]21C`, the Potency entry was “inactive [sample A] and active: 27.1 µM [sample B]”.
Still for that read-out and setting: the same measure for `CC(C)C[C@H](NC(=O)[C@H](CCc1ccccc1)NC(=O)CN1CCOCC1)C(=O)N[C@@H](Cc1ccccc1)C(=O)N[C@@H](CC(C)C)C(=O)[C@@]1(C)CO1`: “inactive [sample A] and active: 383 nM [sample B]”; for `Nc1nc(F)nc2c1ncn2[C@@H]1O[C@H](CO)[C@@H](O)[C@@H]1O`: “inactive [sample A] and active: 681 nM [sample B]”.

A further test in a line: qHTS of pediatric cancer cell lines to identify multiple opportunities for drug repurposing: Primary screen for NB1643 cells (AID 1347099). Note: nearly all actives have a fitted effect of over 50% in size. Particulars: NB1643 neuroblastoma viability, CellTiter-Glo luminescence, 48 h; series mostly up to 46 µM.
For the compound `NC1(c2ccc(-c3nc4ccn5c(=O)[nH]nc5c4cc3-c3ccccc3)cc2)CCC1`, the Potency result was “active: 14.8 µM [sample A] and inactive [sample B]”.
In the case of `CNC1CCCN(c2c(F)cc3c(=O)c(C(=O)O)cn(C4CC4)c3c2OC)C1` (stereo not given), the Potency entry was “active: 3.72 µM [sample A] and inactive [sample B]”.
For the compound `CCCCOc1ccc(CC(=O)NO)cc1`, the Potency result was “inactive [sample A] and active: 9.35 µM [sample B]”.

A further test is described as follows: qHTS of pediatric cancer cell lines to identify multiple opportunities for drug repurposing: Primary screen for Rh18 cells (AID 1347102). Note: nearly all actives have a fitted effect of over 65% in size. Particulars: Rh18 rhabdomyosarcoma viability, CellTiter-Glo luminescence, 48 h; series mostly up to 46 µM. A digest of the protocol:
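Viability after 48 h compound treatment at 37C, 500-1,000 cells/well, read as ATP luminescence with CellTiter-Glo. Primary screens used 11-point (MIPE, 0.78 nM-46 µM) or 8-point (NPC, 0.59 nM-46 µM) final concentrations; follow-up screens used 11-point dilutions.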
Turning to `CC[C@H](C)C(=O)O[C@H]1C[C@@H](C)C=C2C=C[C@H](C)[C@H](CC[C@@H]3C[C@@H](O)CC(=O)O3)[C@H]21`, the Potency result was “active: 10.6 µM [sample A] and inactive [sample B]”.
On the same count and under the same terms, the same measure for `COC(=O)Nc1nc2ccc(Sc3ccccc3)cc2[nH]1`: “active: 11.9 µM [sample A] and inactive [sample B]”; for `Nc1nc(F)nc2c1ncn2[C@@H]1O[C@H](CO)[C@@H](O)[C@@H]1O`: “inactive [sample A] and active: 372 nM [sample B]”.

A further test can be described thus: qHTS of pediatric cancer cell lines to identify multiple opportunities for drug repurposing: Primary screen for Rh41 cells (AID 1347108). Note: nearly all actives have a fitted effect of over 70% in size. The note with it: Rh41 rhabdomyosarcoma viability, CellTiter-Glo luminescence, 48 h; series mostly up to 46 µM. An outline of the steps: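 ATP-based luminescence (CellTiter-Glo) quantifies viability after a 48-hour exposure. Compounds are dosed across 8 or 11 final concentrations; DMSO and 2.3 µM bortezomib serve as controls.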
Consider `CNC1CCCN(c2c(F)cc3c(=O)c(C(=O)O)cn(C4CC4)c3c2OC)C1` (stereo not given), for which the Potency result is “active: 14.8 µM [sample A] and inactive [sample B]”.
Same read-out and setting: the same measure for `COc1nc(N)nc2c1ncn2[C@@H]1O[C@H](CO)[C@@H](O)[C@@H]1O`: “active: 14.8 µM [sample A] and inactive [sample B]”; for `COc1ccc2c(c1)c(CC(=O)OCC(=O)O)c(C)n2C(=O)c1ccc(Cl)cc1`: “inactive [sample A] and active: 18.7 µM [sample B]”; for `CC1=CC(=O)c2ccccc2C1=O`: “inactive [sample A] and active: 23.5 µM [sample B]”.
